From PMC6919601, “Identification of Plasmodium dipeptidyl aminopeptidase allosteric inhibitors by high throughput screening” (PLoS ONE, 2019)
The whole screen tested about 110,000 compounds, of which about 230 (0.21%) showed an effect of 50% or more. The list shows a part of the results.

Target: DPAP1 (Plasmodium falciparum, UniProt Q8IIJ9)
Experiment: primary screen, percent inhibition; read by cleavage of a fluorogenic dipeptide substrate; higher = more effect of the substance
Design: species or system P. falciparum D10 trophozoite lysates; single well
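Further: 30 min substrate incubation versus DMSO and 10 µM JCP410 controls.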

Sequence of DPAP1 (Q8IIJ9 whole entry, looked up): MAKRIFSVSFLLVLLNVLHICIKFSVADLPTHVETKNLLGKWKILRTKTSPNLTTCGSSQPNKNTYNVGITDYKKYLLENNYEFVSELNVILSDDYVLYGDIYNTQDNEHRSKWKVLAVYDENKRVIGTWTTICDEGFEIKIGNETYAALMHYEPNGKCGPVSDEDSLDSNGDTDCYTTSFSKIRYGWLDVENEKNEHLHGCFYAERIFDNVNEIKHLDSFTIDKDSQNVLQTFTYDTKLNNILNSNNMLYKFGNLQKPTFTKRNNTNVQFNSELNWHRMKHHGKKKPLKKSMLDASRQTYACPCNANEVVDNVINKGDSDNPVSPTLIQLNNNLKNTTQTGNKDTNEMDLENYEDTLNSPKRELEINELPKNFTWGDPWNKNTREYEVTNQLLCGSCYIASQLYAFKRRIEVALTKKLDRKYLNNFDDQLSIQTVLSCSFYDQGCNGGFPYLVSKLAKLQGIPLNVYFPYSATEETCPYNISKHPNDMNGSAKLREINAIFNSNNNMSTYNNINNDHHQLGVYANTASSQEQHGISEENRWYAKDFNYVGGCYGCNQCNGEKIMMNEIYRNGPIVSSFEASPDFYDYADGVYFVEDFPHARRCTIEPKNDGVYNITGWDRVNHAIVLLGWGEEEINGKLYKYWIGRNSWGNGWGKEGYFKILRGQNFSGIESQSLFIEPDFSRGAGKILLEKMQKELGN

Compound | % Inhibition @ 10 uM [%]
CCCC(=O)/N=C(\N)Nc1nc(C)c2ccccc2n1 | 3.95
CCOc1ccccc1NC(=O)C1=C(C)NC(=O)NC1c1cc(OC)c(OC)c(OC)c1 (stereo not shown) | -0.69
CCOC(=O)C1=C(N)Oc2c(c(=O)oc3ccccc23)C1c1ccc(Br)cc1 (stereo not shown) | -4.31
COc1ccc(C2(C(=O)NCCCN(C)C)CCCC2)cc1 | -1.43
Cc1ccc2c(c1)cc1c(=O)n(CC(=O)NC(C)c3ccccc3)nc(C)n12 (stereo not shown) | 6.35
O=C1OC(C2CCCCC2)=N/C1=C\c1ccc(Cl)cc1 | 12.2
O=c1c2cc3c(=O)n(CCO)c(=O)c3cc2c(=O)n1CCO | -0.0369
O=C(NCc1ccc2c(c1)OCO2)c1cc(-c2ccccn2)nc2ccccc12 | -0.519
O=C(O)c1ccccc1C(=O)Nc1ccc(N2CCN(CCO)CC2)cc1 | 1.94
CN1CCN(Cc2ccc(F)cc2)CC1 | -0.127
Cc1ccccc1Cn1c(C)c(CNCc2ccc3c(c2)OCO3)c(C(=O)O)c1C | -7.36
Cc1sc2c(c1C)CSC(C(=O)NCCc1ccc(Cl)cc1)=C2 | 7.63
COc1ccc(Cl)cc1C(=O)N1CCN(c2ccc(Cl)cc2)CC1 | 17.5
COc1ccccc1NC(=O)c1c(NC(=O)c2ccco2)sc2c1CCC(C)C2 (stereo not shown) | 0.144
c1ccc(-c2ccc(Oc3cc(-n4cccn4)ncn3)cc2)cc1 | 3.48
COc1ccc(-n2nc3c(N4CCCC(C(=O)NCCC5=CCCCC5)C4)nnc(C)c3c2C)cc1 (stereo not shown) | 4.05
Cc1cc(C)c2c(N)c(C(=O)Nc3ccccc3Cl)sc2n1 | -2.82
CC(NC(=O)CCS(=O)(=O)Cc1ccccc1F)c1ccccc1 (stereo not shown) | 2.18
Nc1nonc1N1CCCCC1 | -3.53
CCC1=CC(C)(CC)N(Cc2ccc([N+](=O)[O-])cc2)c2ccccc21 (stereo not shown) | -1.47
COCC(C)NCc1ccccc1Br (stereo not shown) | -1.56
Cn1c(=O)c2c(nc(SCC(=O)Nc3ccc4c(c3)OCO4)n2Cc2ccccc2)n(C)c1=O | 1.13
COc1ccc2cc(OCC(=O)N3N=C(C(F)F)CC3(O)C(F)F)ccc2c1 (stereo not shown) | -0.99
CCOC(=O)C1=C(CN2CCC(Cc3ccccc3)CC2)NC(=O)NC1c1ccco1 (stereo not shown) | 0.708
CC(C)(C)NCC(=O)N1CC(=O)Nc2ccccc21 | -4.65
COc1ccc(CNc2nc(-c3cccnc3)nn2S(=O)(=O)c2ccc(Cl)cc2)cc1 | 2.21
COc1ccccc1N(CC(=O)Nc1ccccc1Br)S(=O)(=O)c1ccccc1 | -1.95
O=C(O)CCNCc1c(Cl)cccc1Cl | 3.04
